This list was built around the results that the source calls inconclusive (neither active nor inactive); the mix of calls is not that of the screen. For some of these results: Potencies beside an inconclusive call are fits to weak or partial responses and may not hold up. The source made the active and inactive calls. Calls come from the whole dose curve; as a rule, active = well fitted curve in the direction sought with a large enough effect; inconclusive = small, poorly fitted or top-dose-only effect, or another doubt; inactive = no such curve, though single readings can be large; an effect the other way counts as inactive or inconclusive.
Experiments:
[1] = qHTS of pediatric cancer cell lines to identify multiple opportunities for drug repurposing: Primary screen for SK-N-MC cells (AID 1347093); conditions: SK-N-MC viability, CellTiter-Glo luminescence, 48 h; activity change, negative = cytotoxic: at 46 µM (top of the series)
Method in brief: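 Metabolically active cells were quantified by ATP-dependent luminescence (CellTiter-Glo, 15 min at room temperature) following 48 h treatment. Cells had been plated at 500-1,000 per well and settled for 5 h beforehand.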

[2] = qHTS of pediatric cancer cell lines to identify multiple opportunities for drug repurposing: Primary screen for Saos-2 cells (AID 1347097); note: nearly all actives have a fitted effect of over 40% in size
Method in brief: (§1)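 Viability was measured as metabolically active cells after 48 hours of treatment, read by CellTiter-Glo luminescence. Compounds were tested at multiple final concentrations, giving concentration-response curves.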

[3] = qHTS of pediatric cancer cell lines to identify multiple opportunities for drug repurposing: Primary screen for NB1643 cells (AID 1347099); note: nearly all actives have a fitted effect of over 50% in size
Method in brief: as §1

[4] = qHTS of pediatric cancer cell lines to identify multiple opportunities for drug repurposing: Primary screen for RD cells (AID 1347104); note: nearly all actives have a fitted effect of over 55% in size
Method in brief: as §1

[5] = qHTS of pediatric cancer cell lines to identify multiple opportunities for drug repurposing: Primary screen for NB-EBc1 cells (AID 1347095)
Method in brief: as §1

[6] = qHTS of pediatric cancer cell lines to identify multiple opportunities for drug repurposing: Primary screen for U-2 OS cells (AID 1347096); note: nearly all actives have a fitted effect of over 50% in size
Method in brief: (§2)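 Cells (500-1,000/well) rested 5 h, then received compounds for 48 h; metabolically active cells were measured by CellTiter-Glo luminescence. Final concentrations spanned up to 46 µM (MIPE, 11-point) or 0.59 nM-46 µM (NPC, 8-point) in primary screens, 11-point in follow-ups.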

[7] = qHTS of pediatric cancer cell lines to identify multiple opportunities for drug repurposing: Primary screen for SK-N-SH cells (AID 1347098); note: nearly all actives have a fitted effect of over 65% in size;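 for activity change, negative = cytotoxic: DMSO served as neutral control and bortezomib at 2.3 µM as positive control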
Method in brief: as §2

[8] = qHTS of pediatric cancer cell lines to identify multiple opportunities for drug repurposing: Primary screen for OHS-50 cells (AID 1347103); note: nearly all actives have a fitted effect of over 40% in size
Method in brief: as §2

[9] = qHTS of pediatric cancer cell lines to identify multiple opportunities for drug repurposing: Primary screen for Rh30 cells (AID 1347107); note: nearly all actives have a fitted effect of over 75% in size
Method in brief: as §2

[10] = qHTS of pediatric cancer cell lines to identify multiple opportunities for drug repurposing: Primary screen for Rh41 cells (AID 1347108); note: nearly all actives have a fitted effect of over 70% in size;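 for activity change, negative = cytotoxic: luminescence drop marks cytotoxic hits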
Method in brief: as §1

[11] = qHTS of pediatric cancer cell lines to identify multiple opportunities for drug repurposing: Primary screen for BT-37 cells (AID 1347094)
Method in brief: as §1

[12] = qHTS of pediatric cancer cell lines to identify multiple opportunities for drug repurposing: Primary screen for LAN-5 cells (AID 1347100); conditions: LAN-5 neuroblastoma viability, CellTiter-Glo luminescence, 48 h; activity change, negative = cytotoxic: at 46 µM (top of the series)
Method in brief: as §2

[13] = qHTS of pediatric cancer cell lines to identify multiple opportunities for drug repurposing: Confirmatory screen for NB1643 cells (AID 1347109); conditions: NB1643 neuroblastoma cell viability; activity change, negative = cytotoxic: at 45.9 µM (top of the series); note: nearly all actives have a fitted effect of over 45% in size
Method in brief: as §2

[14] = qHTS of pediatric cancer cell lines to identify multiple opportunities for drug repurposing: Primary screen for control Hh wild type fibroblast cells (AID 1347106); note: nearly all actives have a fitted effect of over 55% in size;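 for activity change, negative = cytotoxic: a drop in luminescence marks cytotoxicity and a rise apparent proliferation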
Method in brief: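 Viability after 48 h compound treatment at 37C, 500-1,000 cells/well, read as ATP luminescence with CellTiter-Glo. Primary screens used 11-point (MIPE, 0.78 nM-46 µM) or 8-point (NPC, 0.59 nM-46 µM) final concentrations; follow-up screens used 11-point dilutions.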

[15] = qHTS of pediatric cancer cell lines to identify multiple opportunities for drug repurposing: Primary screen for BT-12 cells (AID 1347101); note: nearly all actives have a fitted effect of over 25% in size
Method in brief: as §2

[16] = qHTS of pediatric cancer cell lines to identify multiple opportunities for drug repurposing: Primary screen for Rh18 cells (AID 1347102); note: nearly all actives have a fitted effect of over 65% in size
Method in brief: as §2

Measured: Potency
Potency is the fitted concentration of half-maximal effect; tags give direction and shape of the fitted curve.

CN1CCN(c2c(F)cc3c(=O)c(C(=O)O)cn(CCF)c3c2F)CC1
inactive: [1] | [2] | [3] | [4]

CN(C)CCN(Cc1ccc(Cl)cc1)c1ccccn1
inactive: [6] | [9]
inconclusive: [5] 20.9 µM [cytotoxic, single point] | [7] 24.1 µM [cytotoxic, partial curve] | [8] 27.3 µM [cytotoxic, partial curve] | [4] 41.8 µM [cytotoxic, single point] | [10] 20.9 µM [cytotoxic, single point]
active: [1] 10.5 µM

O=C1CCC[C@@H]2[C@H]3CCC[N+]4([O-])CCC[C@@H](CN12)[C@@H]34 (some centres undefined)
inactive: [11] | [7] | [12] | [4] | [10]

NC(N)=NC(=O)c1nc(Cl)c(N)nc1N
inactive: [5] | [2] | [13]
inconclusive: [8] 2.17 µM [cytotoxic, partial curve, poor fit] | [4] 8.33 µM [cytotoxic, partial curve, poor fit]

C=CC(=O)N1CCc2ccc(-n3c(=O)ccc4cnc5ccc(-c6cnn(C)c6)cc5c43)cc21
inconclusive: [6] 11.8 µM [cytotoxic, full curve] | [14] 5.9 µM [cytotoxic, full curve] | [9] 4.69 µM [cytotoxic, full curve]
active: [11] 6.11 µM | [4] 4.69 µM | [10] 3.72 µM

O=C1NC(O)CCN1[C@@H]1O[C@H](CO)[C@H](O)[C@H]1O (some centres undefined)
inactive: [5] | [7]

COc1cc(N2CCN(C)CC2)ccc1Nc1nc(N)c(C(=O)c2c(Cl)cccc2Cl)s1
active: [4] 29.6 µM
inconclusive: [11] 21.7 µM [cytotoxic, partial curve] | [5] 23.5 µM [cytotoxic, single point] | [7] 24.1 µM [cytotoxic, partial curve] | [15] 21.7 µM [cytotoxic, partial curve, poor fit] | [16] 7.43 µM [cytotoxic, partial curve]

C[C@H]1O[C@H](O[C@H]2[C@H](O)[C@@H](O)[C@@H](O[C@H]3[C@H](O)[C@@H](O)C(O)O[C@H]3CO)O[C@H]2CO)[C@H](O)[C@@H](O)[C@H]1N[C@H]1C=C(CO)[C@@H](O)[C@H](O)[C@@H]1O (some centres undefined)
active: [11] 1.72 µM | [2] 2.35 µM | [12] 2.35 µM | [15] 2.17 µM | [8] 2.17 µM

Cc1cn(-c2cc(NC(=O)c3ccc(C)c(Nc4nccc(-c5cccnc5)n4)c3)cc(C(F)(F)F)c2)cn1
inconclusive: [4] 9.35 µM [cytotoxic, partial curve]
inactive: [1] | [15]

O=P(O)(O)C(O)(Cc1cccnc1)P(=O)(O)O
inactive: [5] | [12] | [16]

CN1CC(=O)NC1=NC(=O)Nc1cccc(Cl)c1
active: [7] 8.57 µM | [3] 4.69 µM
inconclusive: [2] 13.2 µM [cytotoxic, partial curve] | [12] 20.9 µM [cytotoxic, single point] | [15] 19.3 µM [cytotoxic, partial curve, poor fit] | [8] 15.3 µM [cytotoxic, partial curve] | [9] 18.7 µM [cytotoxic, partial curve, poor fit] | [10] 14.8 µM [cytotoxic, partial curve]
inactive: [6]

CCC1(C)CC(=O)NC1=O (centres undefined)
inactive: [6] | [2] | [12] | [10]

CC(=O)NC(CS)C(=O)O (centres undefined)
inactive: [5] | [3] | [8]

Cc1ccc(C(=O)Nc2ccc(CN3CCN(C)CC3)c(C(F)(F)F)c2)cc1C#Cc1cnc2cccnn12
inconclusive: [14] 0.372 µM [cytotoxic, full curve] | [13] 0.0066 µM [cytotoxic, full curve, poor fit]
active: [6] 5.9 µM | [7] 6.07 µM | [12] 11.8 µM | [4] 3.32 µM | [9] 14.8 µM

COc1nc(C)cnc1NS(=O)(=O)c1cccnc1-c1ccc(-c2nnco2)cc1
inactive: [5] | [16]
inconclusive: [7] 30.4 µM [cytotoxic, single point]

O=[N+]([O-])c1cn2c(n1)OC[C@@H](OCc1ccc(OC(F)(F)F)cc1)C2
inactive: [6]
inconclusive: [7] 12.1 µM [cytotoxic, partial curve, poor fit] | [15] 17.2 µM [cytotoxic, partial curve] | [16] 14.8 µM [cytotoxic, partial curve] | [8] 9.68 µM [cytotoxic, partial curve, poor fit] | [10] 18.7 µM [cytotoxic, partial curve]

NC(=O)N1CCC(CC(=O)N2CCC([C@H]3c4ncc(Br)cc4CCc4cc(Cl)cc(Br)c43)CC2)CC1
inconclusive: [6] 18.7 µM [cytotoxic, partial curve] | [7] 27.1 µM [cytotoxic, single point] | [16] 14.8 µM [cytotoxic, partial curve] | [9] 14.8 µM [cytotoxic, partial curve]
active: [2] 18.7 µM | [3] 14.8 µM | [8] 8.63 µM | [4] 20.9 µM

Cc1cnc(-c2cc(N3CCN(C(=O)CCS(C)(=O)=O)CC3)ncc2Cl)c(C)c1
inactive: [2] | [14] | [13]
inconclusive: [11] 21.7 µM [cytotoxic, partial curve, poor fit] | [7] 38.3 µM [cytotoxic, single point] | [8] 30.6 µM [cytotoxic, single point] | [4] 18.7 µM [cytotoxic, partial curve]
